Measured values from the supplement of paper PMC9151546.
Many values rest on one well or one pass, so single values are uncertain.

Tests used:
CHO-K1 [1] = test: micronucleus frequency (% of nucleated events); higher = more micronuclei (genotoxic)
CHO-K1 [2] = test: hypodiploid nuclei frequency (% of nucleated events); higher = more hypodiploid events (aneugenic)
CHO-K1 [3] = test: relative survival (nuclei to bead ratio vs DMSO control) (% of vehicle control); higher = more surviving cells
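Throughout, for hypodiploid nuclei frequency (% of nucleated events): hypodiploid nuclei gated on a flow cytometer with 488 nm excitation after SYTOX Green staining, cultures at 37 °C, positive controls vinblastine without S9 and cyclophosphamide with S9.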
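Throughout, for micronucleus frequency (% of nucleated events): cells lysed with nuclei stained by SYTOX Green, then micronucleus-gated events counted against nucleated events by flow cytometry with 488 nm excitation.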
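Throughout, for relative survival (nuclei to bead ratio vs DMSO control): Lysed-cell nuclei stained with SYTOX Green and counted against counting beads by flow cytometry at 488 nm excitation, with vinblastine (no S9) and cyclophosphamide (plus S9) as positive controls.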

CN(C)C(=S)S [Sodium dimethyldithiocarbamate]
Conditions	hypodiploid nuclei frequency, CHO-K1 [2] [%]	micronucleus frequency, CHO-K1 [1] [%]	relative survival, CHO-K1 [3]
concentration: 4.5 (µM), S9 metabolic activation: with S9, exposure time: 3-4 hours	0.3	0.84	107
concentration: 4.5 (µM), S9 metabolic activation: without S9, exposure time: 24 hours	0.88	1.58	65.4
concentration: 5.63 (µM), S9 metabolic activation: with S9, exposure time: 3-4 hours	0.16	0.66	94.6
concentration: 5.63 (µM), S9 metabolic activation: without S9, exposure time: 24 hours	0.64	2.02	71.2
concentration: 7.04 (µM), S9 metabolic activation: with S9, exposure time: 3-4 hours	0.14	0.68	88.4
concentration: 7.04 (µM), S9 metabolic activation: without S9, exposure time: 24 hours	0.98	2.52	55.9
concentration: 8.8 (µM), S9 metabolic activation: with S9, exposure time: 3-4 hours	0.18	0.48	104
concentration: 8.8 (µM), S9 metabolic activation: without S9, exposure time: 24 hours	0.6	1.6	59.6
concentration: 11 (µM), S9 metabolic activation: with S9, exposure time: 3-4 hours	0.14	0.96	98.3
concentration: 11 (µM), S9 metabolic activation: without S9, exposure time: 24 hours	0.7	1.32	48.7
concentration: 13.7 (µM), S9 metabolic activation: with S9, exposure time: 3-4 hours	0.1	0.86	135
concentration: 13.7 (µM), S9 metabolic activation: without S9, exposure time: 24 hours	0.4	1.62	59.9
concentration: 17.2 (µM), S9 metabolic activation: with S9, exposure time: 3-4 hours	0.24	1.16	90.7
concentration: 17.2 (µM), S9 metabolic activation: without S9, exposure time: 24 hours	0.78	1.52	58.5
concentration: 21.5 (µM), S9 metabolic activation: with S9, exposure time: 3-4 hours	0.18	0.82	92.3
concentration: 21.5 (µM), S9 metabolic activation: without S9, exposure time: 24 hours	–	–	38.9
concentration: 26.8 (µM), S9 metabolic activation: with S9, exposure time: 3-4 hours	0.08	0.98	66.3
concentration: 26.8 (µM), S9 metabolic activation: without S9, exposure time: 24 hours	0.26	1.36	45.3
concentration: 33.6 (µM), S9 metabolic activation: with S9, exposure time: 3-4 hours	0.26	0.84	85.4
concentration: 33.6 (µM), S9 metabolic activation: without S9, exposure time: 24 hours	0.36	0.97	44
concentration: 41.9 (µM), S9 metabolic activation: with S9, exposure time: 3-4 hours	0.18	1.16	76.8
concentration: 41.9 (µM), S9 metabolic activation: without S9, exposure time: 24 hours	0.35	1.32	44.2
concentration: 52.4 (µM), S9 metabolic activation: with S9, exposure time: 3-4 hours	0.14	0.86	89.3
concentration: 52.4 (µM), S9 metabolic activation: without S9, exposure time: 24 hours	–	–	39.8
concentration: 65.5 (µM), S9 metabolic activation: with S9, exposure time: 3-4 hours	0.1	0.84	70
concentration: 65.5 (µM), S9 metabolic activation: without S9, exposure time: 24 hours	–	–	31.4
concentration: 81.9 (µM), S9 metabolic activation: with S9, exposure time: 3-4 hours	0.2	0.8	83.3
concentration: 81.9 (µM), S9 metabolic activation: without S9, exposure time: 24 hours	0.23	1	43.3
concentration: 102 (µM), S9 metabolic activation: with S9, exposure time: 3-4 hours	0.18	0.84	86.6
concentration: 102 (µM), S9 metabolic activation: without S9, exposure time: 24 hours	0.32	0.89	40.7
concentration: 128 (µM), S9 metabolic activation: with S9, exposure time: 3-4 hours	0.22	0.96	86.8
concentration: 128 (µM), S9 metabolic activation: without S9, exposure time: 24 hours	–	–	35.7
concentration: 160 (µM), S9 metabolic activation: with S9, exposure time: 3-4 hours	0.14	1.06	64.6
concentration: 160 (µM), S9 metabolic activation: without S9, exposure time: 24 hours	0.22	0.72	40.7
concentration: 200 (µM), S9 metabolic activation: with S9, exposure time: 3-4 hours	0.27	1.68	43.5
concentration: 200 (µM), S9 metabolic activation: without S9, exposure time: 24 hours	–	–	24.3

O=NO [Sodium nitrite]
Conditions	hypodiploid nuclei frequency, CHO-K1 [2] [%]	micronucleus frequency, CHO-K1 [1] [%]	relative survival, CHO-K1 [3]
concentration: 4.57 (µM), S9 metabolic activation: with S9, exposure time: 3-4 hours	0.22	1.22	89.9
concentration: 4.57 (µM), S9 metabolic activation: without S9, exposure time: 24 hours	0.68	1.1	149
concentration: 5.71 (µM), S9 metabolic activation: with S9, exposure time: 3-4 hours	0.24	1.32	83.5
concentration: 5.71 (µM), S9 metabolic activation: without S9, exposure time: 24 hours	0.9	1.22	134
concentration: 7.14 (µM), S9 metabolic activation: with S9, exposure time: 3-4 hours	0.12	1.42	87.4
concentration: 7.14 (µM), S9 metabolic activation: without S9, exposure time: 24 hours	0.7	1.32	108
concentration: 8.93 (µM), S9 metabolic activation: with S9, exposure time: 3-4 hours	0.18	1.3	88.1
concentration: 8.93 (µM), S9 metabolic activation: without S9, exposure time: 24 hours	0.78	1.74	138
concentration: 11.2 (µM), S9 metabolic activation: with S9, exposure time: 3-4 hours	0.28	1.14	91.7
concentration: 11.2 (µM), S9 metabolic activation: without S9, exposure time: 24 hours	0.64	1.7	130
concentration: 14 (µM), S9 metabolic activation: with S9, exposure time: 3-4 hours	0.36	1.34	86.4
concentration: 14 (µM), S9 metabolic activation: without S9, exposure time: 24 hours	0.62	1.9	126
concentration: 17.4 (µM), S9 metabolic activation: with S9, exposure time: 3-4 hours	0.28	1.38	89.2
concentration: 17.4 (µM), S9 metabolic activation: without S9, exposure time: 24 hours	0.7	2.16	120
concentration: 21.8 (µM), S9 metabolic activation: with S9, exposure time: 3-4 hours	0.22	1.24	91
concentration: 21.8 (µM), S9 metabolic activation: without S9, exposure time: 24 hours	0.56	1.92	113
concentration: 27.2 (µM), S9 metabolic activation: with S9, exposure time: 3-4 hours	0.1	1	94.8
concentration: 27.2 (µM), S9 metabolic activation: without S9, exposure time: 24 hours	0.48	1.08	105
concentration: 34.1 (µM), S9 metabolic activation: with S9, exposure time: 3-4 hours	0.16	0.7	106
concentration: 34.1 (µM), S9 metabolic activation: without S9, exposure time: 24 hours	0.76	1.16	117
concentration: 42.6 (µM), S9 metabolic activation: with S9, exposure time: 3-4 hours	0.36	1.7	103
concentration: 42.6 (µM), S9 metabolic activation: without S9, exposure time: 24 hours	0.76	1.56	112
concentration: 53.2 (µM), S9 metabolic activation: with S9, exposure time: 3-4 hours	0.22	1.98	103
concentration: 53.2 (µM), S9 metabolic activation: without S9, exposure time: 24 hours	0.98	2.04	105
concentration: 66.5 (µM), S9 metabolic activation: with S9, exposure time: 3-4 hours	0.38	2.44	88.5
concentration: 66.5 (µM), S9 metabolic activation: without S9, exposure time: 24 hours	0.84	1.68	107
concentration: 83.1 (µM), S9 metabolic activation: with S9, exposure time: 3-4 hours	0.2	1.62	116
concentration: 83.1 (µM), S9 metabolic activation: without S9, exposure time: 24 hours	1.06	2.22	114
concentration: 104 (µM), S9 metabolic activation: with S9, exposure time: 3-4 hours	0.14	2.5	86.1
concentration: 104 (µM), S9 metabolic activation: without S9, exposure time: 24 hours	1.54	2.48	114
concentration: 130 (µM), S9 metabolic activation: with S9, exposure time: 3-4 hours	0.26	1.4	84.5
concentration: 130 (µM), S9 metabolic activation: without S9, exposure time: 24 hours	1.66	2.28	108
concentration: 162 (µM), S9 metabolic activation: with S9, exposure time: 3-4 hours	0.12	1.92	91.7
concentration: 162 (µM), S9 metabolic activation: without S9, exposure time: 24 hours	0.9	2.7	107
concentration: 203 (µM), S9 metabolic activation: with S9, exposure time: 3-4 hours	0.24	1.68	94.4
concentration: 203 (µM), S9 metabolic activation: without S9, exposure time: 24 hours	1.5	2.72	97.6
